Source: publication PMC4336329 (PLoS ONE, 2015)
Screen size: about 310,000 compounds; about 14,000 (4.5%) showed an effect of 50% or more. Effects have a minus sign here. This is one part of the list.

The compounds below were run against human ether-à-go-go-related gene (hERG) potassium channel (human, UniProt Q12809) (assay: primary screen, population patch clamp on CHO cells stably expressing hERG).
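Also: peak tail current of the secondary pulse compared with the same well before compound.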

Sequence of human ether-à-go-go-related gene (hERG) potassium channel (Q12809 whole entry, looked up): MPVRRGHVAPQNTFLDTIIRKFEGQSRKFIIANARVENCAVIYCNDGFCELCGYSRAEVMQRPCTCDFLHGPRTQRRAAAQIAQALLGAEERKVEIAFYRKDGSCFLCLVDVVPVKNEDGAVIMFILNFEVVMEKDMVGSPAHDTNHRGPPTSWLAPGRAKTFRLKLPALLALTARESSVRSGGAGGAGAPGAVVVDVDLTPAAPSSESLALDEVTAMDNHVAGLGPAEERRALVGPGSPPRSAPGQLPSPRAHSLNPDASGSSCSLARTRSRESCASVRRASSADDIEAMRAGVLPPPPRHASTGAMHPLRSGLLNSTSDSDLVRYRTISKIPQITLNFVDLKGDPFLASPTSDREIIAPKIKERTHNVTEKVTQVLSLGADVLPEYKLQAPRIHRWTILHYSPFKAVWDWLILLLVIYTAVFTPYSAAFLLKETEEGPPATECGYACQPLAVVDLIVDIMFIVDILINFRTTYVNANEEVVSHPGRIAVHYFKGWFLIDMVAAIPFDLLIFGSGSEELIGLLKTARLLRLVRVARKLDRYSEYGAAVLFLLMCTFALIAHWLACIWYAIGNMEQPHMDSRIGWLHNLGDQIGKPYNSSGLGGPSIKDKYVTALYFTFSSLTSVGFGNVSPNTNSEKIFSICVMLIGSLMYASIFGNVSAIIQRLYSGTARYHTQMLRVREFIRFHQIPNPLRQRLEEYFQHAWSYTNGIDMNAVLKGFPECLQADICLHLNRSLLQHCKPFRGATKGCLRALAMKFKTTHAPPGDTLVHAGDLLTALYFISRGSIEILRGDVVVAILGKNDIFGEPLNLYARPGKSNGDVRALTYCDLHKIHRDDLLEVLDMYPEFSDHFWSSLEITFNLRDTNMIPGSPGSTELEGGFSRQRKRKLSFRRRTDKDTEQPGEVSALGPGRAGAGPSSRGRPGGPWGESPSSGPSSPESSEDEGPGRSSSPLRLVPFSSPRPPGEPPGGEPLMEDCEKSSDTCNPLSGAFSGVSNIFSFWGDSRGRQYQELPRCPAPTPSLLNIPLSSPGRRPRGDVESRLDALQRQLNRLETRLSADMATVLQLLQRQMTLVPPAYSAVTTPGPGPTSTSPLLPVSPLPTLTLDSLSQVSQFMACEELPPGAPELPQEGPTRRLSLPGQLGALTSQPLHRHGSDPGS

Structure (SMILES)	hERG current change (%, negative = inhibition) at 10uM
COc1cccc(NC(=O)C2CCN(S(=O)(=O)c3ccccc3)CC2)c1	5.45%
Cc1cc(C)cc(NC(=O)OCCN2CCN(Cc3ccccc3)CCC2=O)c1	-23.9%
CCOc1ccc(CCNC(=O)c2cccc(S(=O)(=O)N3CCN(C(C)=O)CC3)c2)cc1OCC	-8.25%
CCN1CCCC1CNC(=O)CCc1nc(-c2ccc(C)cc2)no1 (centres unmarked)	-22.4%
CCCc1ncc(C(=O)c2ccc(OC)cc2)n1C	5.24%
Cc1cc(Cl)c2oc(C(=O)N(C)CCCCN3CCOCC3)c(C)c2c1	-46%
CNC(=O)c1sccc1SCc1ccc(Cl)cc1Cl	-15.1%
CCCCn1c(N)c(N(CC(C)C)C(=O)c2ccc([N+](=O)[O-])o2)c(=O)[nH]c1=O	14.7%
O=c1oc2c(CN3CCCCC3)c(O)ccc2c2c1CCCC2	-1.56%
CCCC(=O)Nc1ccc(Cl)c(NC(=O)c2cccc(OC)c2)c1	-27.8%
Cc1c(C(=O)OC/C(O)=C(\C#N)c2nc3ccccc3[nH]2)oc2ccccc12	0.156%
O=C(c1ccco1)N1CCN(C(c2ccccc2Cl)c2nnnn2Cc2cccs2)CC1 (centres unmarked)	-56.2%
CCOC(=O)c1cccc(NC(=O)Cn2cnc3c2c(=O)n(C)c(=O)n3C)c1	-47.3%
C[n+]1cc[nH]c1SCC(=O)c1ccc(Cl)cc1.[Br-]	3.49%
O=C(NCc1ccc(F)cc1)Nc1cccc([N+](=O)[O-])c1	-6.9%
Cc1cc(C)n(-c2nnc(C)n2/N=C/c2cc(Br)ccc2OCc2ccccc2)n1	-2.83%
COc1ccc2cc(C(=O)N(C)Cc3ccccc3)[nH]c2c1	21%
Cc1cc(NC(=O)C(C)SCC(=O)OCC(=O)N(C)c2ccccc2)no1 (centres unmarked)	-7%
Cc1ccc([N+](=O)[O-])c(-c2n[nH]c(=S)n2-c2cccc(Cl)c2)c1	25.6%
CN(C)/C=C/c1onc(-c2c(Cl)cccc2Cl)c1C#N	9.38%
CCCC(=O)Nc1sc(C)c(-c2ccc(C(C)CC)cc2)c1C#N (centres unmarked)	3.7%
CCOC(=O)N1CCN(C(=O)CSc2nc3c(cnn3-c3ccccc3)c(=O)[nH]2)CC1	-26.6%
Cn1c(-c2ccc[nH]c2=O)nc2cc(Cl)ccc21	16.8%

Structure (SMILES)	hERG current change (%, negative = inhibition) at 10uM
NC(=O)CC(NC(=O)Cc1ccc(Br)cc1)c1ccc(NC2CCCC2)c([N+](=O)[O-])c1 (centres unmarked)	3.17%
O=C(COC(=O)C1CCN(c2ccc(C(F)(F)F)cn2)CC1)NCc1ccccc1	-3.43%
CCC(=O)N1CC(=O)Nc2ccc(F)cc2C1c1ccccc1 (centres unmarked)	8.81%
COCCNS(=O)(=O)c1ccc(F)c(OC)c1	8.65%
Cc1c(C(=O)OC(C)C)nnn1-c1nonc1N	12.2%
COC(c1ccccc1)c1nnc(CCC(=O)N2CCN(C3CCCC3)CC2)o1 (centres unmarked)	-36.6%
Cc1nn(-c2ccc(F)cc2)c(Cl)c1/C=C/C(=O)OCC(=O)Nc1c(F)c(F)c(F)c(F)c1F	11.3%
Cc1ccc(NC(=O)C2CC(=O)N(C(C)C)C2)cc1C (centres unmarked)	13.1%
Cc1cccc(N2CCN(S(=O)(=O)c3ccc4c(c3)CC(=O)N4C)CC2)c1C	14.1%
O=C(c1cccc(S(=O)(=O)N2CCN(c3ccccc3)CC2)c1)N1CCCCCCC1	-33.4%
COc1ccc(-n2c(SCC(=O)Nc3ccc4c(c3)OCO4)nc3ccccc3c2=O)cc1	-12.1%
COc1ccc(N2CCN(C(=O)CCc3c[nH]c4ccccc34)CC2)cc1	-10.2%
Cc1ccccc1-c1nnc(SCC(=O)NC2CCCC2)n1C	-3.57%
Clc1ccc2[nH]c3c(N4CCC5(CC4)OCCO5)ncnc3c2c1	-36.2%
CC(C)C[C@H](NC(=O)OC(C)(C)C)C(=O)N/N=C/c1ccc2nccnc2c1	-4.45%
NS(=O)(=O)c1ccc2c(c1)C1C=CCC1C(C1CC=CCC1)N2 (centres unmarked)	16.1%
Cc1cccnc1NC(=O)c1cccc(S(=O)(=O)N2CCCC2)c1	-8.13%
COc1cc(NC(=O)COC(=O)c2ccccc2F)cc(OC)c1	9.49%
Cc1ccc(S(=O)(=O)NNC(=O)c2cc([N+](=O)[O-])c(C)c([N+](=O)[O-])c2)cc1	10.2%
CCC(C(=O)c1ccccc1)P(=O)(NN)c1ccccc1 (centres unmarked)	13.3%
O=C(Nc1nc(-c2ccncc2)cs1)c1ccc(F)cc1	11.5%
CN(C(=O)Cn1cnc([N+](=O)[O-])n1)C1CCCCC1	26.4%
COC(=O)c1sc(NC(=S)NC(=O)c2ccccc2)nc1C	0.156%

Structure (SMILES)	hERG current change (%, negative = inhibition) at 10uM
Cn1c(Cc2ccccc2)nnc1SCC(=O)NC1CCCCC1	12%
CC1(C)S[C@@H]2[C@H](NC(=O)[C@H](N)c3ccccc3)C(=O)N2[C@H]1C(=O)OC1OC(=O)c2ccccc21.Cl (some centres unmarked)	-2.16%
CCOC(=O)CN1CC23C=CC(O2)C(C(=O)NCc2cccs2)C3C1=O (centres unmarked)	6.91%
CCN1C(=O)c2cccc3c(S(=O)(=O)Nc4ccccc4OC)ccc1c23	-4.84%
COc1ccccc1-n1c(SCC(=O)NC(C)(C)C)nnc1-c1ccco1	-8.41%
COc1ccc(C(=O)NCCc2nc3cc([N+](=O)[O-])ccc3n2C)cc1	-39.9%
COc1cc(C)ccc1OCCOc1ccccc1Cl	18.7%
CCc1nnc(NS(=O)(=O)c2ccc(NC(=S)NC(=O)/C=C/c3ccc([N+](=O)[O-])cc3)cc2)s1	32.3%
N/C(=N\OC(=O)Cc1cccc2ccccc12)c1ccccn1	10.1%
Nn1c(-c2cccc([N+](=O)[O-])c2)nc2ccccc2c1=O	5.63%
CCOC(=O)N1CCN(C(=O)C(C)c2ccc([N+](=O)[O-])cc2)CC1 (centres unmarked)	-10.1%
Cc1c(Cl)cccc1NC(=O)NCc1ccc(F)cc1	20%
COc1cc(C)nn1-c1ccc(Cl)cc1	7.72%
COc1ccc(S(=O)(=O)NCc2cccnc2)cc1C(=O)NC1CCCCC1	4.41%
Cc1ccc(S(=O)(=O)NC(=O)c2cc(C)n(-c3ccccc3)c2C)cc1	-0.15%
COc1cccc(Cn2c(-c3cccs3)noc2=O)c1	-27.1%
CCc1cccc(NC(=O)c2cccc3c2C(=O)N(CC2CCCO2)C3)c1 (centres unmarked)	-72.2%
C/C(=N\NC(=S)NC(C)C)c1ccc(C(C)(C)C)cc1	11.1%
CCn1c(SCC(N)=O)nc2sc3c(c2c1=O)CCCC3	1.24%
COc1ccccc1NC(=O)c1cc(=O)[nH]c2ccccc12	33.4%
CC(=O)c1c(C)[nH]c(C(=O)N2c3ccccc3CC2C)c1C (centres unmarked)	5.33%
COC(=O)c1ccccc1SC1CC(=O)N(c2ccccc2)C1=O (centres unmarked)	7.24%
O=C(O)c1ccnc(Cl)c1	3.44%

Structure (SMILES)	hERG current change (%, negative = inhibition) at 10uM
Cl.O=C(O)CSc1nc(-c2ccccc2)c(-c2ccccc2)[nH]1	-3.18%
Cc1cc(Sc2nc(NC(C)(C)C)nc(N3CCOCC3)n2)nc(Cl)n1	15.1%
COc1ccc(OC)c(NC(=O)c2ccccc2SC)c1	-40.2%
Nc1c(Nc2ccccc2)c2ccccc2oc1=O	-4.79%
CCn1cc([N+](=O)[O-])c(C(=O)N2N=C(c3ccc(Cl)c(Cl)c3)CC2c2ccccc2O)n1 (centres unmarked)	23.4%
O=C1C=C(c2ccc3[nH]ccc3c2)CCC1	16.3%
O=C(CSc1nc2cccnc2n1Cc1ccccc1)N1CCCC1	-63.7%
CCCSc1nc(C)c(CC(=O)O)c(=O)[nH]1	9.31%
Cc1cc(C(=O)N/N=C/c2ccc(-c3cccc(Cl)c3)o2)n[nH]1	11.3%
COc1ccc2sc(-c3ccc(N(C)C)cc3)c(C#CC(C)(C)O)c2c1	9.76%
CCOc1ccc(-n2ccnc2SCC(=O)Nc2cc(C)on2)cc1	2.57%
Cc1ccc(-n2ncc3c2CC(C)(C)CC3NC(=O)CCc2c(C)noc2C)cc1 (centres unmarked)	-32.3%
CCNC(=O)C(=O)Nc1ccc(OC)c(Cl)c1	14.4%
COc1ccc(S(=O)(=O)NCC2CCCN(C(=O)c3ccco3)C2)cc1 (centres unmarked)	5.13%
CCC(C)NCCOCCOc1cc(C)c(Cl)c(C)c1.O=C(O)C(=O)O (centres unmarked)	-59.2%
Cc1ccc(C2OCC3(CO2)COC(c2ccc(C)cc2)OC3)cc1 (centres unmarked)	1.72%
Cn1c(=O)oc2cc(S(=O)(=O)N3CCN(c4ccccc4)CC3)ccc21	-5.02%
O=C(CN(Cc1ccccc1Cl)C(=O)CCC(=O)Nc1nccs1)NCC1CCCO1 (centres unmarked)	7.87%
CN(C)c1cccc(C(=O)NNC(=O)/C=C/c2cccs2)c1	-3.37%
Cc1cccc(N2CCN(S(=O)(=O)c3c(C)[nH]c(=O)[nH]c3=O)CC2)c1C	23.5%
